These are literature values, as cited in paper PMC8227400, “Novel N-Arylsulfonylindoles Targeted as Ligands of the 5-HT6 Receptor. Insights on the Influence of C-5 Substitution on Ligand Affinity” (Pharmaceuticals, 2021).

In general, Ki refers to the dissociation constant of the complex between target and ligand, obtained from inhibition or displacement.

In the data set the target is human 5-HT6 receptor (Homo sapiens, UniProt P50406). The arrangement: expressed in transfected cells; host or cells: HEK-293. Particulars: C-5 unsubstituted derivatives previously reported; cited from earlier work.
Sequence of UniProt P50406 (P50406 whole entry): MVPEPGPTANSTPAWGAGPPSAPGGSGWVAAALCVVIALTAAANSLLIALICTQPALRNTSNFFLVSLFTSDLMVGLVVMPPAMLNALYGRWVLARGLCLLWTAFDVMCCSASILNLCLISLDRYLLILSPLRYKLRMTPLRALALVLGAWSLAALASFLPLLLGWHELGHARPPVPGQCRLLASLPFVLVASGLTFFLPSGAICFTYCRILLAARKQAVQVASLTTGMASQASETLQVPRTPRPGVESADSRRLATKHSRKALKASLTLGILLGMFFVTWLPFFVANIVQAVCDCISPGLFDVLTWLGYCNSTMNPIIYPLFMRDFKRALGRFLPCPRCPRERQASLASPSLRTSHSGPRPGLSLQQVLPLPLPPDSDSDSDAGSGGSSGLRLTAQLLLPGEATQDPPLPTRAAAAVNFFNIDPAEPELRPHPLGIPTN

As to `COc1ccc(S(=O)(=O)n2cc(C(O)CN3CCOCC3)c3ccccc32)cc1` (stereo not shown) [PUC-22], the Ki was 0.891 µM.

Take `O=S(=O)(c1ccc(I)cc1)n1cc(C(O)CN2CCN(c3ccccn3)CC2)c2ccccc21` (stereo not shown) [PUC-9]: the Ki is 0.371 µM.

On to `COc1ccccc1N1CCN(CC(O)c2cn(S(=O)(=O)c3cccc4ccccc34)c3ccccc23)CC1` (stereo not shown) [PUC-10], for which the Ki was 0.0146 µM.

Consider `Cc1ccc(S(=O)(=O)n2cc(C(O)CN3CCN(c4ccccn4)CC3)c3ccccc32)cc1` (stereo not shown) [PUC-24], for which the Ki is 0.479 µM.

Regarding `COc1ccccc1N1CCN(CC(O)c2cn(S(=O)(=O)c3ccc(C)cc3)c3ccccc23)CC1` (stereo not shown) [PUC-32], the Ki is 0.0136 µM.

For the compound `Cc1ccc(S(=O)(=O)n2cc(C(O)CN3CCN(c4ncccn4)CC3)c3ccccc32)cc1` (stereo not shown) [PUC16], the Ki is 0.851 µM.

Take `COc1ccccc1N1CCN(CC(O)c2cn(S(=O)(=O)c3ccc(I)cc3)c3ccccc23)CC1` (stereo not shown) [PUC-7]: the Ki was 0.0184 µM.
